# In PubChem BioAssay AID1030 (National Center for Advancing Translational Sciences (NCATS), 2008):
# Among all 220,000 compounds or so, about 16,000 (7.3%) were called active. The inconclusive results got no clear call from the source; some entries with a clear call stand among them for comparison. Calls follow the shape of the dose curve; as a rule, active = well fitted inhibition curve with a large enough effect (not every such curve was filed as active); inconclusive = small, poorly fitted or top-dose-only effect, or another doubt; inactive = no such curve, though single readings can be large or run the other way. No potency is given beside an inconclusive call; the fits are too rough.
# Biological target: Aldehyde dehydrogenase 1A1 (Homo sapiens) (UniProt P00352)
# Chain of UniProt P00352 (P00352 whole entry, looked up): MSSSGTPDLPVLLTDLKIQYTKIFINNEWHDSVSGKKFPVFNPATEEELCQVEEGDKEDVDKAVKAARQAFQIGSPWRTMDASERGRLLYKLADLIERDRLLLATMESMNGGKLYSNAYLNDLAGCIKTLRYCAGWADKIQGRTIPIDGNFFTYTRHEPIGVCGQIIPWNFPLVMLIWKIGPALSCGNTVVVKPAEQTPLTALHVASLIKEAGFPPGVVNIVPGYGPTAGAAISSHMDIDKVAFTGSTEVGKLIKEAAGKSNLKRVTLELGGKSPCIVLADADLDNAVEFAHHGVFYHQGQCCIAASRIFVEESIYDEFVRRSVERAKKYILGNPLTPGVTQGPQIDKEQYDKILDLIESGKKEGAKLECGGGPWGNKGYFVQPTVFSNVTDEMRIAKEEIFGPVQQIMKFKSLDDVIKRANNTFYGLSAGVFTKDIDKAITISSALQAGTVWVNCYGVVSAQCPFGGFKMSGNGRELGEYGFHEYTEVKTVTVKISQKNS
# Experiment: qHTS Assay for Inhibitors of Aldehyde Dehydrogenase 1 (ALDH1A1)
# Details: Purified ALDH1A1, NADH fluorescence, propionaldehyde substrate; series mostly up to 75.3 µM
# Potency is read from the fitted curve at half-maximal effect; tags tell the direction and shape of the fitted curve.
row,SMILES,Potency
1,CN(C)c1ccc(NS(=O)(=O)c2cc(Cl)ccc2Cl)cc1,"inconclusive [inhibitor, single point]"
2,O=C(/C=C/c1cccs1)Nc1ccc(N2CCOCC2)c(S(=O)(=O)Nc2cc(Cl)ccc2Cl)c1,"inconclusive [inhibitor, single point]"
3,CCc1nnc(NS(=O)(=O)c2ccc(N/C=C\C(=O)c3ccc(C)cc3)cc2)s1,"inconclusive [inhibitor, single point]"
4,COc1nc(Nc2ccc(C(C)C)cc2)nc(OC)n1,"inconclusive [inhibitor, single point]"
5,C(=NCCCN1CCOCC1)c1ccc2c(c1)OCO2,"inconclusive [inhibitor, full curve]"
6,O=C(/C=C/c1cccc(Cl)c1)NCc1ccccc1,inactive
7,CCO[C@@H]1OC(C(=O)NCc2ccccc2)=C[C@H](c2csc3ccccc23)[C@H]1CCCO,"inconclusive [inhibitor, single point]"
8,CC(=O)CCC(=O)OCC(=O)c1ccc(C(F)(F)F)cc1,"inconclusive [inhibitor, single point]"
9,COCCCNC(=S)Nc1cccc2ncccc12,"inconclusive [inhibitor, single point]"
10,c1ccc2c(-c3nc(-c4ccncc4)no3)cccc2c1,"inconclusive [inhibitor, partial curve]"
11,C=CCc1cccc2cc(C(=O)N3CCN(c4ccccn4)CC3)c(=O)oc12,"inconclusive [inhibitor, single point]"
12,O=C(O)/C=C/C(=O)NCCNc1ncc(C(F)(F)F)cc1Cl,active: 28.2 µM
13,CCOC(=O)Cc1cnc(NC(=O)NC(C(=O)OCC)(c2ccccc2)C(F)(F)F)s1 (stereo unspecified),inactive
14,CCc1n[nH]c(=S)n1/N=C/c1ccc2c(c1)OCO2,"inconclusive [inhibitor, single point]"
15,CS(=O)(=O)N(Cc1ccccc1)c1ccc(C(=O)Nc2cccnc2)cc1,inactive
16,Cc1cccc2c1NC(=O)/C2=C\C(=O)c1cccs1,"inconclusive [inhibitor, partial curve]"
17,CCN(CC)c1ccc(C=Nc2cc(C)cc(C)c2)c(O)c1,active: 14.1 µM
18,CCOC(=O)C1CCCN(Cc2ccc(OCC)cc2)C1 (stereo unspecified),"inconclusive [inhibitor, single point]"
19,COc1ccc(Cl)cc1NC(=S)NCCc1ccc(S(N)(=O)=O)cc1,active: 6.31 µM
20,CCC(c1nnc(SCC(=O)N2CC3(C)CC2CC(C)(C)C3)o1)N(C)C (stereo unspecified),"inconclusive [inhibitor, partial curve]"
21,CCOC(Cn1cc(C)c(=O)[nH]c1=O)OCC,inactive
22,CCOC(=O)c1ccc(NS(=O)(=O)c2ccc3c(c2)CCCN3C(C)=O)cc1,"inconclusive [inhibitor, single point]"
23,CCCOC(=O)c1cccc(Nc2nc(-c3cccnc3)nc3ccccc23)c1,"inconclusive [inhibitor, partial curve]"
24,C=CCNC(=O)c1ccc(N(C)S(=O)(=O)c2ccc(OC)cc2)cc1,"inconclusive [inhibitor, single point]"

row,SMILES,Potency
1,COc1ccc(NC(=O)c2ccc(NCCN3C(=O)CCC3=O)c([N+](=O)[O-])c2)cc1,inactive
2,Cc1cccc(-n2c(C)cc(/C=N/NC(=O)c3ccc(CN4CCOCC4)cc3)c2C)c1,"inconclusive [inhibitor, single point]"
3,Cc1ccsc1/C=N/NC(=O)c1cc(-c2ccncc2)nc2ccccc12,"inconclusive [inhibitor, single point]"
4,N#CC1=C(N)Oc2n[nH]c(CSc3ccccc3)c2C12C(=O)Nc1ccccc12 (stereo unspecified),active: 10 µM
5,O=C(Cn1cnc([N+](=O)[O-])n1)N/N=C/c1ccc(O)cc1O,"inconclusive [inhibitor, single point]"
6,O=C(C1CCCN(S(=O)(=O)c2cccs2)C1)N1CCc2ccccc2C1 (stereo unspecified),"inconclusive [inhibitor, single point]"
7,O=C(NCc1ccccn1)Nc1cccc(NC(=O)NCc2ccccn2)c1,inactive
8,COc1ccc(/C=N/NS(=O)(=O)c2ccc(F)cc2)cc1COc1cc(F)ccc1[N+](=O)[O-],active: 35.5 µM
9,CCOC(=O)c1c(-n2cnnn2)sc(C)c1C,"inconclusive [inhibitor, partial curve]"
10,COCCOC(=O)C1=C(C)NC2=C(C(=O)CC(C)(C)C2)C1c1ccc2c(c1)OCO2 (stereo unspecified),"inconclusive [inhibitor, single point]"
11,CCOc1ccc(/C(O)=C2/C(=O)C(=O)N(c3nc(C)c(C)s3)C2c2ccco2)cc1 (stereo unspecified),inactive
12,CN(C)CCN1C(=O)C(=O)/C(=C(/O)c2ccc(OCc3ccccc3)cc2)C1c1ccncc1 (stereo unspecified),inactive
13,COc1ccccc1NC(=O)CN1C(=O)C(C)SC(C)C1=O (stereo unspecified),inactive
14,O=C(CN1CCN(c2ncc(C(F)(F)F)cc2Cl)CC1)NCCNc1ncc(C(F)(F)F)cc1Cl,"inconclusive [inhibitor, single point]"
15,O=C(CN1CCCC1)Nc1ccc(Br)cc1,"inconclusive [inhibitor, partial curve]"
16,CC(C)c1cccc(C(C)C)c1NC(=O)c1ccccc1,inactive
17,O=C(O)c1sc2cc(C(F)(F)F)cnc2c1-c1ccccn1,inactive
18,Nc1ccccc1SCC1CSc2nc3ccccc3c(=O)n21 (stereo unspecified),"inconclusive [inhibitor, single point]"
19,CSc1nnc(-c2sc3cc(C(F)(F)F)cnc3c2-c2ccccn2)n1C,"inconclusive [inhibitor, partial curve]"
20,CC1(OC(=O)CCc2ccccc2)C(=O)C=C2C=C(C3CC3)OC=C2C1=O (stereo unspecified),inactive
21,COc1ccc(/C=N/c2nc3ccccc3n2CCN2CCCCC2)cc1OC,"inconclusive [inhibitor, single point]"
22,CN(C)Cc1c(-c2ccc(Cl)cc2)nc2ccccn12,inactive
23,Cc1ccc(C23CC4CC(CC(NC(=O)NC(C)(C)CO)(C4)C2)C3)cc1,"inconclusive [inhibitor, partial curve]"
24,CCCc1nc2oc(C(=O)c3ccccc3)c(N)c2c2c1COC(C)(C)C2,active: 10 µM

row,SMILES,Potency
1,COc1ccc(Cc2n[nH]c(=S)n2Cc2ccccc2)cc1Cl,inactive
2,CCc1ccc(N2CC(C(=O)N/N=C/c3cc([N+](=O)[O-])ccc3O)CC2=O)cc1 (stereo unspecified),"inconclusive [inhibitor, single point]"
3,C=CCNC(=O)c1sc(SC)cc1-c1ccc(Cl)cc1,"inconclusive [inhibitor, single point]"
4,COC(=O)c1ccccc1SC1CC(=O)N(c2cccc(C)c2)C1=O (stereo unspecified),active: 17.8 µM
5,COc1ccc([N+](=O)[O-])cc1N(CC(O)Cn1nnc2ccccc21)S(=O)(=O)c1ccc(C)cc1 (stereo unspecified),"inconclusive [inhibitor, partial curve]"
6,O=C(Nc1ccc(F)cc1F)NC1CC(=O)N(Cc2ccccc2)C1 (stereo unspecified),"inconclusive [inhibitor, partial curve]"
7,CNC(=O)c1cc2c(=O)n3cc(C)ccc3nc2n(C(C)C)c1=N,"inconclusive [inhibitor, partial curve]"
8,O=C(CSc1ncnc2ccccc12)c1ccc2c(c1)OCCO2,"inconclusive [inhibitor, single point]"
9,Cn1c(=O)c(-c2cc(F)cc(F)c2)nc2cnc(Oc3ccccc3)nc21,"inconclusive [inhibitor, single point]"
10,CCOC(=O)C1=C(C)NC2=C(C(=O)CC(C)(C)C2)C1c1ccsc1 (stereo unspecified),"inconclusive [inhibitor, single point]"
11,O=C1c2ccccc2NC(c2ccccc2)N1Cc1ccco1 (stereo unspecified),"inconclusive [inhibitor, partial curve]"
12,Cc1cccc(C)c1[N+](=O)[O-],"inconclusive [inhibitor, single point]"
13,COc1cccc(C2C(C(N)=O)=C(C)Nc3nc(-c4ccccc4Cl)nn32)c1 (stereo unspecified),"inconclusive [inhibitor, single point]"
14,O=C(Nc1nc(-c2ccccn2)cs1)C1CCCC1,"inconclusive [inhibitor, single point]"
15,Cc1nnc(NC(=O)c2ccc3ccccc3n2)s1,inactive
16,COc1ccc(C2C(=O)N(C3CCCCC3)CC(=O)N2Cc2ccc3c(c2)OCO3)cc1 (stereo unspecified),"inconclusive [inhibitor, single point]"
17,COCCCn1c(C)nnc1-c1cnn(-c2ccccc2)c1N,"inconclusive [inhibitor, partial curve]"
18,COc1ccc(N2C(=O)C3CCCN3C2c2ccc(C)o2)cc1Cl (stereo unspecified),"inconclusive [inhibitor, partial curve]"
19,COC(=O)COc1ccc(-n2cnnn2)cc1,inactive
20,Cc1nc2ccccc2n1CCCOc1ccccc1,inactive
21,Cc1ccc(CSc2nc3sc(C)c(C)c3c(=O)n2Cc2ccco2)cc1,"inconclusive [inhibitor, single point]"
22,COc1ccccc1N1CCN(C(=O)C2CC=CCC2C(=O)O)CC1 (stereo unspecified),"inconclusive [inhibitor, single point]"
23,CC(=O)c1ccc(N2CCN(C(=O)CCCn3c(=O)[nH]c4ccc(Br)cc4c3=O)CC2)cc1,"inconclusive [inhibitor, single point]"
